Results: ChEMBL document CHEMBL1157539, “Thousands of chemical starting points for antimalarial lead identification” (Nature, 2010)
Values joined by “and” are separate entries in the source; they are usually repeats but may differ in a detail not shown here. Equal entries are not always repeated. The full ranking holds about 13,000 compounds; the median of “IFI” is about 4, and the highest 2% start at about 17. The list shows a part of the results.

Assay: GSK_TCMDC: Inhibition Frequency Index (IFI). The number of non-kinase HTS assays where a compound showed > 50 % inhibition, expressed as a percentage of the number of such assays in which the compound was tested (-0 is zero)
Format: functional

For `COC(=O)c1sccc1NC(=S)NC1CCC(CN2CCC(c3c[nH]c4ccccc34)CC2)CC1` (configuration not stated), the IFI was 5.67% and 5.71%.
In the case of `O=C(/C=C/c1cccc(F)c1)NC1CCC(CN2CCC(c3c[nH]c4ccccc34)CC2)CC1` (configuration not stated), the IFI was 4.86% and 4.93%.
In the case of `COC(=O)c1ccc(CC(C)NCC(O)c2cccc(C(F)(F)F)c2)cc1` (configuration not stated), the IFI was 0.72% and 4.35% and 2.17%.
With `S=C(Nc1ccc2c(c1)OCCO2)NC1CCC(CN2CCC(c3c[nH]c4ccccc34)CC2)CC1` (configuration not stated) the IFI was 6.43% and 4.9%.
For `Cc1ccc(CC(C)NCC(O)c2cccc(C(F)(F)F)c2)cc1` (configuration not stated), the IFI was 2.92% and 2.88%.
In the case of `O=C(/C=C/c1ccccc1O)NC1CCC(CN2CCC(c3c[nH]c4ccccc34)CC2)CC1` (configuration not stated), the IFI was 2.8% and 2.19%.
For `O=C(/C=C/c1cccc(Cl)c1)NC1CCC(CN2CCC(c3c[nH]c4ccccc34)CC2)CC1` (configuration not stated), the IFI was 6.52% and 5.63%.

Point of comparison: `CCCCCCC(CC)c1cc(O)c2c(c1)OC(C)(C)c1ccncc1-2` (configuration not stated), IFI 1.49%. Against it:
- CC(=O)Nc1ccc(CN2CCC(N(C)c3ccc(NC(=O)c4cccc(C)c4)cc3)CC2)cc1 — higher, 8.82%
- Cc1cc2cc(CNCCc3ccccc3Br)ccc2nc1N — higher, 7.09%
- CC(Cc1ccc(OCCCCOc2ccccc2)cc1)NCCCN1CCOCC1 (configuration not stated) — higher, 30.1%
- CN1CC=C(c2c[nH]c3ccc(-c4ccccc4)cc23)CC1 — lower, -0%
- N#Cc1c(Cl)cccc1Oc1ccc(S(=O)(=O)N2CCC(CN3CCC(c4c[nH]c5ccccc45)CC3)CC2)cc1 — higher, 5.63%
- CCCc1ccc2c(c1O)CCC(N(CCC)CCC)C2 (configuration not stated) — lower, -0%
- CNC(=O)c1ccc2[nH]cc(C3CCN(CC4CCC(NC(=O)/C=C/c5ccccc5Cl)CC4)CC3)c2c1 (configuration not stated) — lower, 0.75%
- CC(C)CNCc1ccc(-c2cccc(CN(C(=O)Nc3ccccc3)C3CCN(Cc4ccccc4)CC3)c2)cc1 — higher, 7.75%
- N[C@@H](CCN1CCC(c2cccc(O)c2)CC1)Cc1ccc(F)c(F)c1 — higher, 12.1%
- O=C(/C=C/c1ccc(Cl)c(Cl)c1)NCCCCCN1C2CCC1CC(c1c[nH]c3ccccc13)C2 (configuration not stated) — higher, 4.9%
- CC[C@H]1CN2CC[C@H]1C[C@H]2[C@H](O)c1cc(-c2cccc(C)c2)nc2ccc(OC)cc12 — higher, 6.12%
- NC(=O)CN1CC=C(c2c[nH]c3ccc(Br)cc23)CC1 — lower, 0.79%
- O=C(NCCC1CCN(CCc2c[nH]c3ccccc23)CC1)Nc1ccc(Cl)c(Cl)c1 — higher, 7.46%
- COC(=O)c1ccc(CC(C)NCC(O)c2ccccc2Cl)cc1 (configuration not stated) — higher, 3.03%
- O=C(/C=C/c1ccc(Cl)c(Cl)c1)NCc1ccc(CN2CCC(c3c[nH]c4ccccc34)CC2)cc1 — higher, 10.4%
- FC(F)(F)c1ccc(NC(=S)N2CCC(CN3CCC(c4c[nH]c5ccccc45)CC3)CC2)cc1 — higher, 7.19%
- COCC(=O)N(Cc1ccccc1-c1cccc(CNCCc2ccccc2)c1)C1CCN(Cc2ccccc2)CC1 — higher, 4.41%
- C=C[C@H]1CN2CC[C@H]1C[C@H]2[C@H](OS(=O)(=O)O)c1ccnc2ccccc12 — lower, -0%
- NCc1cccc(-c2cccc(CN(C(=O)Nc3ccccc3)C3CCN(Cc4ccccc4)CC3)c2)c1 — higher, 6.52%
- Oc1ccccc1CNCC(O)c1cc(C(F)(F)F)cc(C(F)(F)F)c1 (configuration not stated) — higher, 10.1%
- O=C(/C=C/c1ccc(Cl)c(Cl)c1)N1CCC(CN2CCC(c3c(Br)[nH]c4ccccc34)CC2)CC1 — higher, 4.38%
- COc1cc(C(=O)NC2CCC(CN3CCC(c4c[nH]c5ccccc45)CC3)CC2)cc(Cl)n1 (configuration not stated) — higher, 2.19%
- O=C(/C=C/c1ccc(Cl)c(Cl)c1)NC1CCC(CN2CCC(c3c[nH]c4ccccc34)C(O)C2)CC1 (configuration not stated) — higher, 9.35%
- Cc1cc(CN2CCN(CCOC(c3ccccc3)c3ccccc3)CC2)ccc1O — higher, 6.34%
- CNCCc1c(O)ccc2ccccc12 — lower, -0%
- CC[C@H]1CN2CC[C@H]1C[C@H]2[C@H](O)c1ccnc2ccc(O)cc12 — lower, -0%
- COc1cc(CC(C)NCC(O)c2cccc(C(F)(F)F)c2)ccc1OCc1ccccc1 (configuration not stated) — lower, 1.45%
- CC[C@H]1CN2CC[C@H]1C[C@H]2[C@H](O)c1cc(/C=C/c2ccc(F)cc2)nc2ccc(OC)cc12 — higher, 4.2%
- CC[C@H]1CN2CC[C@H]1C[C@@H]2[C@@H](OC(=O)c1ccc(Cl)cc1)c1ccnc2ccc(OC)cc12 — higher, 2.99%
- CC(Cc1ccc(Oc2ccccc2)cc1)NCC(O)c1cccc(C(F)(F)F)c1 (configuration not stated) — higher, 4.96%
- CC(=O)N(Cc1cccc(-c2cccc(CNCc3ccc4c(c3)OCO4)c2)c1)C1CCN(Cc2ccccc2)CC1 — higher, 4.51%
- CC(C)CNCc1cccc(-c2ccc(CN(C(=O)NC3CCCCC3)C3CCN(Cc4ccccc4)CC3)cc2)c1 — higher, 8.46%
- CC(Cc1ccc(OCCCCOc2ccccc2)cc1)NCCC1CCCN1C (configuration not stated) — higher, 32.5%
- CC(=O)N(Cc1ccccc1-c1cccc(CNCCc2ccccc2)c1)C1CCN(Cc2ccccc2)CC1 — higher, 4.51%
- CC[C@H]1CN2CC[C@H]1C[C@H]2[C@H](O)c1cc(-c2ccccc2F)nc2ccc(OC)cc12 — higher, 2.76%
- CC[C@H]1CN2CC[C@H]1C[C@H]2[C@H](O)c1cc(Cl)nc2ccc(OC)cc12 — lower, 0.72%
- Cc1cccc2[nH]cc(C3CCN(CC4CCC(NC(=O)/C=C/c5ccc(Cl)c(Cl)c5)CC4)CC3)c12 (configuration not stated) — higher, 12.3%
- COCCNCc1ccc(-c2cccc(CN(C(=O)CCC3CCCC3)C3CCN(Cc4ccccc4)CC3)c2)cc1 — higher, 7.86%
- CC(Cc1ccc(OCc2ccccc2)c(Cl)c1)NCC(O)c1cccc(C(F)(F)F)c1 (configuration not stated) — higher, 4.29%
- COc1ccc2[nH]cc(C3=CCN(CC4CC4C(=O)c4ccccc4)CC3)c2n1 (configuration not stated) — higher, 3.42%
- COc1ccc(C(=O)c2ccc3[nH]cc(C4=CCN(C)CC4)c3c2)cc1 — lower, 0.82%
- Cc1ccc(CC(C)(C)NCC(O)c2cccc(C(F)(F)F)c2)cc1 (configuration not stated) — higher, 6.62%
- CO/C=C(/C(=O)OC)c1ccccc1Oc1cc(Oc2ccccc2C#N)ncn1 — higher, 6.5%
- CCOc1ccc(CN(CCc2ccc3c(c2)OCO3)Cc2cc(OC)ccc2O)cc1 — higher, 4.11%
- O=C(Nc1ccc(Cl)c(Cl)c1)N1CCC(CN2CCC(c3c[nH]c4ccccc34)CC2)CC1 — higher, 4.23%
- CCN1CCC(N2CCC(n3c(C)nc4cc(C(F)(F)F)ccc43)CC2)CC1 — higher, 2.38%
- CCCCNC(c1ccc(Cl)cc1)C(O)c1ccc(Cl)cc1 (configuration not stated) — higher, 2.27%
- Oc1ccc(CN2CCN(CCOC(c3ccccc3)c3ccc(Cl)cc3)CC2)cc1Cl (configuration not stated) — higher, 5%
- Cc1nc(C)c(-c2ccc(Oc3ccc(OC(F)(F)F)cc3)cc2)c(OC(=O)N(CCNC(C)C)C(C)C)c1Br — higher, 18%
